# Some entries of the source have several records that differ or are many. They are shown here; other results are not. There may be further records. The values listed for one entry are repeated measurements across runs, samples, wells, individuals or studies. Results filed as inconclusive are left out. How the source made its calls, unless noted: active means hit-call score of the fitted dose curve at least 0.9, where 1 is the maximum; inactive means score below 0.9. More than one record can exist for a structure, and the calls need not agree.
# Legend:
# [1] = ATG_ERE_CIS: Attagene CIS-FACTORIAL HepG2 Assay for Estrogen Response Element (ERE) (AID 2282940); settings: HepG2 ERE cis-reporter, Attagene RNA transcript; actives raise or lower the signal
# In short: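 Human liver cells (HepG2) bearing transiently transfected, promoter-regulated reporter units were exposed 24 h. Reporter mRNA induction was detected by capillary electrophoresis of labelled RT-PCR products and fitted bidirectionally to DMSO.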
# [2] = biological target: bovine Estrogen Receptor (ER), ESR1 (gene 407238) (UniProt P49884); experiment: NVS_NR_bER: NovaScreen (NVS) Nuclear Receptor Binding Assay for bovine Estrogen Receptor (ER) (AID 2283345; active means hit-call score of the fitted dose curve at least 0.9, where 1 is the maximum;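 further: actives lower the bound radioligand count which means they displace the ER ligand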)
# Chain of UniProt P49884 (P49884 whole entry, looked up): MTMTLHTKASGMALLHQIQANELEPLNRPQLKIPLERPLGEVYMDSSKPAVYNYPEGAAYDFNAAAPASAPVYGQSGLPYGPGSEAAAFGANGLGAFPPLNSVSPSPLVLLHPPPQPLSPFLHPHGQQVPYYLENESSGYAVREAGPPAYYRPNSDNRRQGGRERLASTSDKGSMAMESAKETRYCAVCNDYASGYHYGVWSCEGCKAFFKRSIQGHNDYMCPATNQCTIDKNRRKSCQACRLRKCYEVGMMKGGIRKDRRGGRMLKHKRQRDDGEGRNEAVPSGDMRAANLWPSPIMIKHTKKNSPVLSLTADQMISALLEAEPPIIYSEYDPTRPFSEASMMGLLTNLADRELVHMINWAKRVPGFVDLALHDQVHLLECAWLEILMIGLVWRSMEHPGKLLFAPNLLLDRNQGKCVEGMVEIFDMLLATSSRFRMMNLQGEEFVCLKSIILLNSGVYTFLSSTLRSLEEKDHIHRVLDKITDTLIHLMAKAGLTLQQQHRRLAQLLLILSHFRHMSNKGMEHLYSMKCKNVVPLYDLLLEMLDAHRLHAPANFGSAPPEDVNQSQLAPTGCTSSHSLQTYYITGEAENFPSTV
# In short: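 Displacement of a radioligand from estrogen receptor in bovine uterine membrane preparations; scintillation signal taken at 18 hours, DMSO as baseline. Single-concentration duplicates (25 uM) preceded concentration-response follow-up of actives.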
structure (smiles),measurement,setting,value
C#C[C@]1(O)CC[C@H]2[C@@H]3CCC4=CC(=O)CC[C@@H]4[C@H]3CC[C@@]21C,AC50,[1],"active: 8.52, 36.4, 30.3, 10.7 nM [separate samples]"
same,AC50,[2],"active: 2.07 µM, 3.43 µM, 1.21 µM, 973 nM [separate samples]"

# — PubChem BioAssay (EPA / NIEHS)
